Assay results published in the antibiotic and cytotoxicity screens of Wong et al. (2023).
This is one part of the list.

These compounds were tested on S. aureus RN4220 (assay: growth inhibition call (relative growth <= 0.2)). Conditions: 50 µM.

Growth inhibition call, inactive:
Cc1noc(C)c1NC(=O)Nc1ccc2c(c1)C(=O)N([C@H](C)CO)C[C@H](C)[C@H](CN(C)CC1CCCCC1)OCCCC[C@H](C)O2, CC12CCC3C(=CCc4cc(O)ccc43)C1CCC2=O (stereo not given), COc1ccc(NC(=O)N(C)C[C@@H]2OCCCC[C@@H](C)Oc3ccc(NS(=O)(=O)c4ccc(F)cc4)cc3C(=O)N([C@H](C)CO)C[C@@H]2C)cc1, NC1(CC(=O)O)CCN(Cc2ccccc2)CC1, c1ccc(-c2nc(-c3cccs3)[nH]c2-c2ccccc2)cc1, COc1ccccc1C#Cc1cnc2c(c1)C(=O)N([C@@H](C)CO)C[C@@H](C)[C@@H](CN(C)S(=O)(=O)c1cn(C)cn1)O2, Cn1cnc(S(=O)(=O)N2C[C@H](O)COC[C@@H]3O[C@H](CC(=O)NCc4ccc(F)cc4)CC[C@H]32)c1, N#C[C@@H]1C(=O)NC(=O)[C@@H](C#N)C12CCCC2, Cc1ccc(S(=O)(=O)N(C)C[C@@H]2Oc3ccc(NC(=O)Nc4ccc(C(F)(F)F)cc4)cc3CC(=O)N([C@@H](C)CO)C[C@H]2C)cc1, N=C(N)NCCSC(=N)N, O=C(O)c1cccnc1C(=O)O, CCCN(CCC)CCc1cccc2c1CC(=O)N2.Cl, C[C@@H]1CCCCO[C@H](CN(C)Cc2ccc(Cl)c(Cl)c2)[C@@H](C)CN([C@@H](C)CO)C(=O)c2cc(NC(=O)Cc3ccccc3)ccc2O1, C[C@@H]1CN([C@@H](C)CO)C(=O)c2cc(NS(C)(=O)=O)ccc2O[C@H]1CN(C)Cc1ccc(C(=O)O)cc1, CC(C)NC(=O)Nc1ccc2c(c1)C(=O)N([C@H](C)CO)C[C@H](C)[C@H](CN(C)C(=O)Nc1ccc(F)cc1)OCCCC[C@@H](C)O2, C[C@@H]1CCCCO[C@H](CN(C)Cc2ccccc2)[C@@H](C)CN([C@@H](C)CO)C(=O)c2cc(NC(=O)CCC(F)(F)F)ccc2O1, CCS(=O)(=O)N1CCO[C@]2(COCCN(c3cncnc3)C2)C1, CCNC(=S)N1CCOCC1, C[C@@H]1CN([C@@H](C)CO)C(=O)Cc2cc(NC(=O)CCC(F)(F)F)ccc2O[C@@H]1CN(C)C(=O)Nc1cccc2ccccc12, Cc1ccc(-c2ccc3c(c2)O[C@@H](CN(C)C(=O)NC(C)C)[C@@H](C)CN([C@@H](C)CO)S3(=O)=O)cc1, O=C(CCCCCNC(=O)OCc1ccc(CO[C@@H]2C[C@H](c3ccccc3)C=C(C(=O)N3CCN(Cc4ccccc4)CC3)O2)cc1)NO, Cc1noc(C)c1NC(=O)Nc1ccc2c(c1)CC(=O)N([C@@H](C)CO)C[C@@H](C)[C@H](CN(C)CC1CC1)O2, C[C@@H]1CN([C@@H](C)CO)C(=O)c2cccc(NC(=O)NC3CCCCC3)c2O[C@@H]1CN(C)S(C)(=O)=O, C[C@@H]1CN([C@@H](C)CO)C(=O)c2cc(NC(=O)CCC(F)(F)F)ccc2O[C@H]1CN(C)C(=O)Nc1ccc(C(F)(F)F)cc1, Cl.NC(CO)C(=O)NNCc1ccc(O)c(O)c1O (stereo not given), CCS(=O)(=O)Nc1ccc2c(c1)C(=O)N(C)C[C@H](OC)[C@@H](C)CN(Cc1nccs1)[C@H](C)CO2, CCc1c(C)[nH]c(N2CCOCC2)nc1=O, C[C@@H]1CN([C@H](C)CO)C(=O)c2cccc(NC(=O)Nc3ccc(F)cc3)c2O[C@H]1CN(C)Cc1ccc(Cl)c(Cl)c1, C[C@@H]1CCCCO[C@@H](CN(C)C(=O)Nc2cccc3ccccc23)[C@H](C)CN([C@@H](C)CO)C(=O)c2cc(NS(=O)(=O)c3cn(C)cn3)ccc2O1, C[C@@H]1CN([C@@H](C)CO)S(=O)(=O)c2ccc(C#CC(C)(C)O)cc2O[C@@H]1CN(C)Cc1ccc(F)cc1, COC(=O)c1cncn1C, C[C@@H]1CCCCO[C@@H](CN(C)Cc2ccc(C(=O)O)cc2)[C@@H](C)CN([C@H](C)CO)C(=O)c2cc(NC(=O)Cc3ccccc3)ccc2O1, C[C@@H]1CCCCO[C@@H](CN(C)S(C)(=O)=O)[C@@H](C)CN([C@H](C)CO)C(=O)c2cc(NC(=O)c3ccncc3)ccc2O1, COc1ccc(S(=O)(=O)N2C[C@H](O)COC[C@@H]3O[C@H](CC(=O)NCCCN(C)C)CC[C@H]32)cc1, C[C@H](CO)N1C[C@H](C)[C@H](CN(C)C(=O)c2ccccc2)OCCCC[C@H](C)Oc2ccc(NC(=O)CCC(F)(F)F)cc2C1=O, COc1ccc(C(=O)Nc2ccc3c(c2)C(=O)N(C)[C@@H]2CC[C@@H](CC(=O)NCC4CC4)O[C@@H]2CO3)cc1, COC(=O)C12CC3(C(=O)OC)CC(C(=O)OC)(CC(C(=O)OC)(C1)C3=O)C2=O, CCOC(=O)CCc1n[nH]c(=O)[nH]c1=O, C=CC[C@@H](CC(=O)N(CCO)Cc1ccccc1)C(=O)NC[C@H](OC(=O)[C@H](CC=C)NC(=O)OCC1c2ccccc2-c2ccccc21)c1ccccc1, O=C(/C=C/c1cc2c(cc1Br)OCCO2)c1c(-c2ccccc2)c2cc(Cl)ccc2[nH]c1=O
